Reference: PubChem BioAssay AID624417 (National Center for Advancing Translational Sciences (NCATS), 2012)
The whole screen tested about 410,000 compounds, of which about 6,400 (1.6%) were called active. The shares of active, inactive and inconclusive entries below differ from those in the screen. Calls follow the shape of the dose curve; as a rule, active = well fitted inhibition curve with a large enough effect; inconclusive = small, poorly fitted or top-dose-only effect; inactive = no such curve, though single readings can be large or run the other way. Potencies of inconclusive entries are left out as doubtful fits.
% is scaled to controls: 0 for no effect and ±100 for the full control effect; potency is read from the fitted curve at half-maximal effect; tags tell the direction and shape of the fitted curve.
Also: nearly all actives have a fitted effect of over 55% in size.

What follows are compounds tested against Glucagon-like peptide 1 receptor (Homo sapiens) (UniProt P43220) (assay: qHTS of GLP-1 Receptor Inverse Agonists (Inhibition Mode)). Details: HEK293 GLP-1R CRE-luciferase, luminescence, 24 h, GLP-1R form is constitutively active; activity change, negative = inhibition: at 38.3 µM (top of the series) unless noted.
Sequence of UniProt P43220 (P43220 whole entry, looked up): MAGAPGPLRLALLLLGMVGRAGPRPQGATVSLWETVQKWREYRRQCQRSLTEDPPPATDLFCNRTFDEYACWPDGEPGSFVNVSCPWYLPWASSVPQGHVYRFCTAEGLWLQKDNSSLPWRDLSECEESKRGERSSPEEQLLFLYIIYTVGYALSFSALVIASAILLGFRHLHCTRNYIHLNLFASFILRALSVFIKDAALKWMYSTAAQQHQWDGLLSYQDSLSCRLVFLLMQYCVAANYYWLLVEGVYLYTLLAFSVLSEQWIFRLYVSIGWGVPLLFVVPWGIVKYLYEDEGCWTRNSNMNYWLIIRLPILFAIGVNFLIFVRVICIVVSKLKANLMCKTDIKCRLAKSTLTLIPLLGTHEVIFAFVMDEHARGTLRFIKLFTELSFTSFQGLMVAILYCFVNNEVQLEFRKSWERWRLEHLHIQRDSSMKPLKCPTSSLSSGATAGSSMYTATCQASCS
How it was run: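 Readout was luciferase luminescence, measured 12 min after detection reagent at room temperature. Beforehand, GLP-1R reporter HEK293 cells had sat 12 h, then received compounds for 24 hr at 37 deg C.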
In the case of COc1ccc(N2C(=O)Cc3cc(OC)c(OC)cc3C2c2ccc(F)cc2)cc1 (configuration not stated), the “activity change, negative = inhibition” value is reported as inactive: -3.34%.
COCCN(CCOC)c1nc(-c2ccc(C)cc2)nc2ccccc12 was tested, and the Potency was inconclusive [inhibitor, partial curve, poor fit].
For CCN1CCN(CCNC(=O)c2ccc3c(c2)NC(=O)/C(=C\c2cccc(Cl)c2)S3)CC1, the “activity change, negative = inhibition” value was inactive: -23.7%.
In the case of O[Si](CCCN1CCCCC1)(c1ccc(F)cc1)C1CCCCC1 (configuration not stated), the Potency is reported as inconclusive [inhibitor, partial curve, poor fit].
COc1ccc(NC(=O)CCCNC(=O)Cn2cnc3sc(C)c(C)c3c2=O)cc1OC was tested, and the “activity change, negative = inhibition” value was inactive: 5.39%.
O=C(Nc1cc(S(=O)(=O)N2CCCCC2)ccc1Cl)c1ccc(F)cc1 was tested, and the Potency was inconclusive [inhibitor, full curve].
With Cc1ccc(NC(=O)C2CCN(S(=O)(=O)c3c(C)noc3/C=C/c3cccs3)CC2)cc1F the Potency was inconclusive [inhibitor, partial curve, poor fit].
With Cc1cc(C)c(C(=O)OCC(=O)Nc2cccc(S(=O)(=O)N3CCCCC3)c2)c(C)c1 the Potency was inconclusive [inhibitor, partial curve, poor fit].
Cc1cccc(N(CC(=O)NCCSCc2cccc(Cl)c2)S(=O)(=O)c2ccccc2)c1C was tested, and the Potency was inconclusive [inhibitor, single point].
With O=C(CN1C2=NCCN2c2ccccc21)c1ccc(Br)cc1 the Potency was inconclusive [inhibitor, single point].
With CCOC(=O)C1=C(CN2CCN(C(=O)c3ccco3)CC2)NC(=O)NC1c1ccc(C)cc1 (configuration not stated) the Potency was inconclusive [inhibitor, partial curve, poor fit].
With Cc1cs/c(=N\N=C\c2ccccc2)n1Cc1ccco1 the Potency was inconclusive [inhibitor, single point].
For CC(C)Nc1nc(Cl)nc(NCCOc2ccccc2)n1, the Potency was inconclusive [inhibitor, single point].
For Cc1noc(C)c1S(=O)(=O)N(CC(=O)N1CCCCCC1)c1ccc(C(C)C)cc1, the Potency was inconclusive [inhibitor, partial curve, poor fit].
For CC1CCCN(C(=O)c2cc3ccccc3cc2O)C1 (configuration not stated), the Potency was inconclusive [inhibitor, partial curve, poor fit].
With COc1ccc(CCNC(=O)Nc2ccccc2[N+](=O)[O-])cc1 the Potency was inconclusive [inhibitor, single point].
In the case of O=C(c1cn(-c2ccccc2)nc1-c1cccc(Br)c1)N1CCOCC1, the Potency is reported as inconclusive [inhibitor, single point].
COCCNCCCCOc1ccc(Br)cc1C was tested, and the Potency was inconclusive [inhibitor, partial curve, poor fit].
With C=CCN1C=C2C(=O)C(C)(OC(=O)C3CCCC3)C(=O)C(c3ccccc3)=C2C=C1CCCC(=O)OC (configuration not stated) the “activity change, negative = inhibition” value was inactive: 22.2%.
COc1ccc(C(=O)NNc2ncnc3c2cnn3-c2cccc(Cl)c2)cc1OC was tested, and the “activity change, negative = inhibition” value was inactive: 5.23%.
For CCN(CC)CCCNC(=O)c1nn(C)c2c1CSc1ccccc1-2, the “activity change, negative = inhibition” value was inactive: 5.29%.
COc1ccccc1-c1cc(C(=O)Nc2cc(OC)c(OC)c(OC)c2)no1 was tested, and the Potency was inconclusive [inhibitor, full curve, poor fit].
For Cc1ccc(-n2nc(C)c3c(C(=O)NCCc4ccccc4)cc(C)nc32)cc1, the “activity change, negative = inhibition” value was inactive: -28.9%.
For CCN(CC)c1ccc(C(=O)NCc2ccc3c(c2)CCN3C(=O)c2ccc(F)cc2)cc1, the “activity change, negative = inhibition” value was inactive: 16.6%.
In the case of CCOc1ccc(C(=O)C2CCN(CC(=O)Nc3nccs3)CC2)cc1, the Potency is reported as inconclusive [inhibitor, partial curve, poor fit].
For COCc1cc(=O)n2[nH]cc(-c3ccccc3)c2n1, the “activity change, negative = inhibition” value was inactive: 47.5%.
For CCOC(=O)c1[nH]c2cc3c(cc2c1NC(=O)CN1CC(C)CC(C)C1)OCO3 (configuration not stated), the Potency was inconclusive [inhibitor, full curve, poor fit].
In the case of CCCCNC(=O)c1cc(-c2ccc(OC)cc2)nc2n[nH]c(-c3cccc([N+](=O)[O-])c3)c12, the “activity change, negative = inhibition” value is reported as inactive: 2.02%.
For Cc1ccnc2c1ccc1c(C)ccnc12, the Potency was inconclusive [inhibitor, full curve, poor fit].
CN(C)c1cc(NC(=O)CNC(C)(C)C)c2ccccc2n1 was tested, and the Potency was inconclusive [inhibitor, single point].
For CCCCNC(=O)c1cn(CC(C)C)c(=O)c2c1c1ccccc1n2C, the “activity change, negative = inhibition” value was inactive: -6.95%.
In the case of CCOc1ccccc1NC(=O)CSc1nnc(-c2ccccc2Cl)n1Cc1ccco1, the Potency is reported as inconclusive [inhibitor, single point].
With COC(=O)c1cc(CSc2nnc(NC3CCCCC3)s2)oc1C the Potency was inconclusive [inhibitor, single point].
For CC(C)OC(=O)/C(=C/c1ccc2c(c1)c1ccccc1n2C)NC(=O)c1ccccc1, the Potency was inconclusive [inhibitor, partial curve, poor fit].
With C=CCn1c(=O)/c(=C/c2ccc(Cl)cc2)s/c1=C(/C#N)c1nnc2n1CCCCC2 the Potency was inconclusive [inhibitor, partial curve, poor fit].
Nc1c(C(=O)Nc2ccccc2F)sc2nc3c(cc12)CCCCCC3 was tested, and the Potency was inconclusive [inhibitor, full curve, poor fit].
In the case of O=C(COC(=O)c1ccc(O)cc1O)NC1CCCCCC1, the “activity change, negative = inhibition” value is reported as inactive: -22.4%.
Cc1cc(NC(=O)c2ccc3c(c2)OCCO3)cc(-c2nc3ccccc3o2)c1O was tested, and the “activity change, negative = inhibition” value was inactive: 3.12%.
Cc1ccc(NS(=O)(=O)c2cc(-c3cnc(C4CC4)o3)ccc2C)cc1Cl was tested, and the Potency was inconclusive [inhibitor, full curve].
In the case of CC(OC(=O)Cc1ccc(Cl)cc1)C(=O)NC1CCCCC1C (configuration not stated), the Potency is reported as inconclusive [inhibitor, partial curve].
For Cc1ccc(C(=O)COC(=O)c2cccc(NC(=O)c3ccc(Cl)cc3Cl)c2)cc1, the Potency was inconclusive [inhibitor, single point].
For Cc1ccc(C)c(NC(=O)Cn2cc(C(=O)c3cccs3)c3ccccc32)c1, the Potency was inconclusive [inhibitor, partial curve, poor fit].
